The source of these data is the RNAGym collection of RNA variant scans (doi:10.7554/elife.90254).

B1: LINE1-mini (parent)
chain: GGCAGAGCUCAACACAGCGUGGCAAAGUGGCUGUGGCUAGACUGCC

Read counts are not given, so values of variants with three or more changes are uncertain.

Variants of B1 are the subject of this series. Nature of the series: self-cleavage, relative activity (ratio to wild type); higher = more cleavage; in vitro, sequencing; the parent is a self-cleaving ribozyme.
For the variant GGCAGAGCGCAACACACCGUGGCAAAGUGGCUGCGGCUAGACUGCC [U9G G17C U34C], the self-cleavage was found to be 0.03.

As to GGCAGAGCGCAACACAGCCUGGCAAAGUGGCUGUGGCUAGCCUGCC [U9G G19C A41C], the self-cleavage came to 0.06.

With GGCAGAGCGCAACACAGCGUGGCAAAGUGGAUGUCGCUAGACUGCC [U9G C31A G35C], the self-cleavage was found to be 0.01.

GGCAGAGCGGAACAUAGCGUGGCAAAGUGGCUGUGGCUAUACUGCC [U9G C10G C15U G40U]: the self-cleavage was 0.01.

Consider GGCAGAGCGAAACACAGCGUGGCAAAGUGGCUGUGGCUAUACCGAA [U9G C10A G40U U43C C45A C46A], for which the self-cleavage is 0.02.

Consider GGCAGAGCGCAACACAACGUGGCCAAGAGGCUGUGGCUAGACUGCU [U9G G17A A24C U28A C46U], for which the self-cleavage amounted to 0.02.

Turning to GGCAGAGCGCAACACAACCUGGCAAACUGGUUGUGGCUAGACUGCC [U9G G17A G19C G27C C31U], the self-cleavage was 0.05.

Take GGCAGAGCGCAACACACCGUGGCAAAGUUGCUGUGGCUAGACUGCC [U9G G17C G29U]: the self-cleavage was found to be 0.1.

Take GGCAGAGCGCAACACAGCGUGGAAAAGUGGCUAUGGCUAGACUGCC [U9G C23A G33A]: the self-cleavage was 0.06.

In the case of GGCAGAGCGCAACACAGCGUGGCGCAGUGGCUGUGGCUAGAUUGCC [U9G A24G A25C C42U], the self-cleavage turned out to be 0.02.

Take GGCAGAGCGCAACACUGCGUGGCAAAGAGGCGGUGGCUAGACUGCC [U9G A16U U28A U32G]: the self-cleavage was 0.05.

For the variant GGCAGAGCGCAACACAGCAAGGCAAACUGGCUGUGGCUAGACUGCC [U9G G19A U20A G27C], the self-cleavage is 0.03.

With GGCAGAGCGCAACACAGCGUGGCAACGUGGCUGUGGAUAGACUGCC [U9G A26C C37A], the self-cleavage amounted to 0.05.

Regarding GGCAGAGCGCAACACAGCGUGGCCAUGUGGCUGUGGCUAGACUGCC [U9G A24C A26U], the self-cleavage is 0.04.

GGCAGAGCGCAACACAGCGUAGCAAAGUGGCUGUGGCUAGACUUCC [U9G G21A G44U]: the self-cleavage stood at 0.04.

As for GGCAGAGCGCAACACAGAGUGGCAAAGUGACUGUCGCUAGACUGCC [U9G C18A G30A G35C], the self-cleavage came to 0.03.

With GGCAGAGCGCAACACAGUGUGGCAAAGUGGCUGUGGCCAGACUGCC [U9G C18U U38C], the self-cleavage came to 0.02.

Regarding GGCAGAGCGCAACACAGCGUGGCAAAGUUGCCGUGGCUAGACUGCC [U9G G29U U32C], the self-cleavage was determined as 0.01.

As for GGCAGAGCGCAAGACAGCGUUGCAAAGUGGCUGUGGGUAGACUGCC [U9G C13G G21U C37G], the self-cleavage amounted to 0.07.

As for GGCAGAGCGCAACACAGCAUGGCAAAGUGGCUGUUGCUAGACUGCC [U9G G19A G35U], the self-cleavage came out at 0.01.

Consider GGCAGAGCGCAACACAGCGUGGCAAAGUGGCUUUGGCUAGACUGAC [U9G G33U C45A], for which the self-cleavage came out at 0.16.

With GGCAGAGCGAAACACAGUGUGGCAAAGUGGCUGUGGCUAGACUGCG [U9G C10A C18U C46G], the self-cleavage was 0.

GGCAGAGCGCAACACAGCGUGGCAAAGUGGCUGUGGGUAGAGUGCC [U9G C37G C42G]: the self-cleavage is 0.03.

GGCAGAGCGCAAUUCAGCGUGGCAAAGUGUCAGUGUCUAGACUGCC [U9G C13U A14U G30U U32A G36U]: the self-cleavage was determined as 0.11.

With GGCAGAGCGCAACACAGCUUGGCAAAGUGGCAGUGGCUAGACUGCC [U9G G19U U32A], the self-cleavage came out at 0.03.

For GGCAGAGCGCAACACAUCGUGACAAAGUAGCUGUGGCUAGACUGCG [U9G G17U G22A G29A C46G], the self-cleavage came out at 0.09.

Turning to GGCAGAGCGCAAGACAGCGUGGCAUAGUGGCUGUGGCUAGACUGCC [U9G C13G A25U], the self-cleavage came to 0.06.

GGCAGAGCGCAAAACAGCGUGGCCAAGUGGCUGUGGCUAGACUGCC [U9G C13A A24C]: the self-cleavage turned out to be 0.11.

For the variant GGCAGAGCGCAACAAAGCGUGCCAAAGUGGCUGUGGCUAGACUGCC [U9G C15A G22C], the self-cleavage was 0.03.

GGCAGAGCGCAACACAGCGUAGCAAAGUGGCUGUGGUUAGAAUGCA [U9G G21A C37U C42A C46A]: the self-cleavage came out at 0.67.

For GGCAGAGCGCAACACAGCGCGGCAAAGUGGCUGUGGCUAGUCUGCC [U9G U20C A41U], the self-cleavage was 0.08.

For the variant GGCAGAGCGCAACACAGCGUGCCUAAGUGGCUGUGGCGAGACUGCC [U9G G22C A24U U38G], the self-cleavage is 0.01.

For the variant GGCAGAGCGAAACACAGCGUGGCAAAGUGGCUCUGGCUAUACUGCC [U9G C10A G33C G40U], the self-cleavage stood at 0.01.

In the case of GGCAGAGCGGCACAUAGCGUAGCAAAGUGGCUGUGGCUAGACUGCC [U9G C10G A11C C15U G21A], the self-cleavage is 0.01.

With GGCAGAGCGCAACAUAGCGUUGCAAAGUGGCUGUGGCUAGACUGCC [U9G C15U G21U], the self-cleavage was 0.02.

In the case of GGCAGAGCGCAACACAGCGUGUCAAAGUGGCUGUGGCUAGACCGCC [U9G G22U U43C], the self-cleavage worked out at 0.03.

On to GGCAGAGCGCAACACAGCGUGGCAAAGUGGCUGUCCCUAGACUCCC [U9G G35C G36C G44C], for which the self-cleavage turned out to be 0.11.

GGCAGAGCGCAACACAACGUGGCUAAGUGGCUCUGGCUAGACUUCC [U9G G17A A24U G33C G44U]: the self-cleavage is 0.06.

For GGCAGAGCGUAACACGUCGUGGCAAAGUGGCUGUGGCUAGACUGCC [U9G C10U A16G G17U], the self-cleavage came out at 0.08.

Turning to GGCAGAGCGCAACACAGCGAGGCAAGGUGGCUGUGGCUAGACUGCC [U9G U20A A26G], the self-cleavage is 0.02.

For GGCAGAGCGCAACACAGCGUGGGAAAGUGGCUGUGGCUAGACUACC [U9G C23G G44A], the self-cleavage came out at 0.02.

Consider GGCAGAGCGCAACACAGCGUGGCAAAGUGGCUUUCGCUAGACUGCC [U9G G33U G35C], for which the self-cleavage amounted to 0.13.

GGCAGAGCGUAACACAGGGUGGCAAAGUGGCUGUGGCUAGACUGCC [U9G C10U C18G]: the self-cleavage was 0.02.

Regarding GGCAGAGCGCAACACAGCGUGGCAAAGUGUCUGUGGCUAGACUGCG [U9G G30U C46G], the self-cleavage came out at 0.03.

Take GGCAGAGCGCAACACAGCGUGGCAUAGUGGCUGUGGCUAGACUGAC [U9G A25U C45A]: the self-cleavage stood at 0.05.

Take GGCAGAGCGCAACACAGCGUGCCAAUGUGGCUGUGGCUAGACUGCC [U9G G22C A26U]: the self-cleavage came out at 0.05.

With GGCAGAGCGUAACACAGCGUGGCAAAGUCGCUGUGGCUCGACUGCC [U9G C10U G29C A39C], the self-cleavage amounted to 0.02.

Take GGCAGAGCGCAACACAGCGUGGAAAAGUGGCUGUGGCUAGGCUGUC [U9G C23A A41G C45U]: the self-cleavage was 0.08.

With GGCAGAGCGCAAUACAGCGUGGCAAAGUGUCUGUGGUUAGACUGCC [U9G C13U G30U C37U], the self-cleavage came to 0.03.

For the variant GGCAGAGCGCAACACAACGCGGAAAAAUGGCUGUGGCUACUCUGGC [U9G G17A U20C C23A G27A G40C A41U C45G], the self-cleavage amounted to 0.01.

With GGCAGAGCGCAACACAGCUUAGCAAAGUGGCUGUGGCUAGACUGCC [U9G G19U G21A], the self-cleavage was found to be 0.3.

Take GGCAGAGCGCAACACAGCGUCGCAAAGUGGCUGUGGCUAGACUGCG [U9G G21C C46G]: the self-cleavage turned out to be 0.08.

With GGCAGAGCGCAACACAGCGUGACAAAGUGGCUGGUGCUAGACUGCC [U9G G22A U34G G35U], the self-cleavage worked out at 0.02.

Consider GGCAGAGCGCAAGACAGCGUGUCAAAGUGGCUGUGGCUAAACUGCC [U9G C13G G22U G40A], for which the self-cleavage came out at 0.02.

On to GGCAGAGCGCAACACAGCGUGGUAAAGUGGCUGUUGCUAGACUGCC [U9G C23U G35U], for which the self-cleavage was 0.03.

For the variant GGCAGAGCGCAACACAACGUGGCAAAGUGUCUGUGGCUAUACUGCC [U9G G17A G30U G40U], the self-cleavage is 0.03.
